# Whole data set: some 33,000 sequences, median “E-score (-0.5 to 0.5)” near -0.011, cut for the highest 2% near 0.28. Some of the results follow.
# Biological target: T1, Gcr1 (UniProt P07261)
# T1 sequence: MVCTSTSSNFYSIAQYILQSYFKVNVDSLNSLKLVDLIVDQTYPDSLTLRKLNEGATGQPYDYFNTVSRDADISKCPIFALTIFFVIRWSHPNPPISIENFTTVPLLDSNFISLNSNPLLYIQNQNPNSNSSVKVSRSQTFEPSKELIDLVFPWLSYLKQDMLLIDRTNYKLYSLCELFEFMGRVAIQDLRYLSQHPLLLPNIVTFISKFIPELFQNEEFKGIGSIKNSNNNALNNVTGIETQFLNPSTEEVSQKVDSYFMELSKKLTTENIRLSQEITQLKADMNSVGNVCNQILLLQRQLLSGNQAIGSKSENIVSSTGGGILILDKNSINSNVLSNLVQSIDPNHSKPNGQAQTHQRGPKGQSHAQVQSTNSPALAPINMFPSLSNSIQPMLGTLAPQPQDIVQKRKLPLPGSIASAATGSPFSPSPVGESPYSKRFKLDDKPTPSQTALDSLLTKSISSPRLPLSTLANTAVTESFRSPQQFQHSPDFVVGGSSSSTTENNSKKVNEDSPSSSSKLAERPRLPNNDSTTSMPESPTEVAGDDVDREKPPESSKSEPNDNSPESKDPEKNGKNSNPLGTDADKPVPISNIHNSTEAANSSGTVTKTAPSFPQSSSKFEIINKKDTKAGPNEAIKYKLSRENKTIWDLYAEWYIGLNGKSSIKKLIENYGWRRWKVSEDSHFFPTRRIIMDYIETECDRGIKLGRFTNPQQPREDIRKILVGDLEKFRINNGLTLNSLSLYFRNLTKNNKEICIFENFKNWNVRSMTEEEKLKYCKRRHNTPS
# Experiment: PBM E-score (8-mer binding enrichment) (E-score (-0.5 to 0.5)); higher = stronger / more preferred TF binding; most listed sequences are background and not binding sites
# Conditions: protein concentration: 100 nM; construct: GST-full length
# Summary of the method: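 Yeast transcription factors carrying a GST tag, as full-length proteins or DNA-binding domains, were produced by PURExpress in vitro transcription/translation. About 100-200 nM protein was applied to universal all-10-mer Agilent arrays, double-stranded by primer extension on fresh or once-stripped slides. Bound protein was detected with fluorescent anti-GST, and scans were normalised with masliner. The Universal PBM Analysis Suite gave each ungapped eight-base word, pooled with its reverse complement, an E-score, a modified Wilcoxon-Mann-Whitney statistic.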
row,Sequence,PBM E-score
1,ACCTACCA,-0.116
2,GCGTCTAA,0.357
3,AAATACTC,-0.0536
4,CGCAGCTC,0.09
5,ACTATGAA,0.0421
6,ATGGGCGA,-3e-05
7,AGACAAGG,-0.191
8,GGAGTCAC,-0.0369
9,GCCTTTCA,-0.134
10,GTCCGCAA,-0.0214
11,ATGGCAGG,0.23
12,AATCGGTC,-0.0441
13,CGAGGGAG,-0.207
14,CACAGTAG,0.119
15,CCATCTTA,0.133
16,GTACAGAC,-0.155
17,ACTAGTTG,0.209
18,ATGCTGCG,0.0273
19,CTCAAACC,-0.123
20,AATGGCGG,-0.00339
21,CCGATACA,0.0692
22,CCCTCTGC,-0.333
23,CACAATGA,0.0838
24,CAAAATTG,0.0415
25,CCCTCTAG,0.0202

row,Sequence,PBM E-score
1,ATGTAGAG,-0.0132
2,ATCCATCG,-0.173
3,GATAACGA,-0.223
4,GACTCGCA,-0.101
5,AGTCTGCA,-0.179
6,ATCATATG,-0.201
7,AAGTCTGG,0.0604
8,CAGCAGCA,0.00017
9,GCTCTTCA,-0.0466
10,CGGATGAA,-0.124
11,CTTTAAAC,0.00913
12,CATACTCA,-0.0376
13,TAGGGGCA,0.0843
14,GACTGCGC,-0.0774
15,AGTCGGGA,-0.166
16,AACCCGGC,0.0862
17,CCATAGCA,0.111
18,ATAAAACA,0.147
19,CGCCACAC,0.0307
20,ACCTCGTA,-0.147
21,ACCCGTTA,0.113
22,AAATAAGA,0.244
23,ATATAAGA,0.149
24,CTGTTACA,-0.0232
25,CCTCGCTA,-0.0436

row,Sequence,PBM E-score
1,GCAGGACA,0.0472
2,AAGACCTC,-0.196
3,TCAGCCGA,-0.237
4,ACCCATAG,-0.0241
5,AAGCGCTG,-0.0178
6,CTCAAGGA,-0.0618
7,AGCTAACG,-0.0538
8,GCTTAAGA,-0.0325
9,AAGATTCG,0.0694
10,AAAGCAAG,-0.171
11,AGTGATAA,0.0157
12,CTGTCGAA,-0.198
13,CAAGGAAC,0.0885
14,AGGCCAAA,0.141
15,CCGCTCGC,0.0456
16,CAATGCTA,0.0932
17,CGTTTGCA,-0.108
18,ACTTAGAT,-0.0341
19,GGACATAC,-0.239
20,CCTTTTAC,0.208
21,AACAAATG,-0.0834
22,CGGAGCTC,-0.0976
23,CTTCCAAA,0.338
24,CCCATGAA,0.053
25,TCAGGCAA,-0.162

row,Sequence,PBM E-score
1,ATGCAGAC,0.0912
2,AGATAACA,-0.0519
3,GTGCTCTA,-0.0794
4,CATAGAAC,-0.0439
5,AACGTTTG,-0.0537
6,CAGCTAGA,0.227
7,GAAGATCC,-0.0567
8,ACTGCCGC,-8e-05
9,AGTAAAAC,-0.21
10,CGTGCATC,0.00547
11,ATCGTAAG,-0.0963
12,CCCGCGAA,0.171
13,AGGACAGG,0.0703
14,AAAGGTTG,0.0957
15,CCTGACGC,-0.0471
16,CAAAAATG,0.131
17,AGAACTTC,-0.00062
18,AGTATTAT,0.0512
19,AACTATGG,-0.048
20,GCTAGGCC,-0.144
21,AACTAGGA,0.0121
22,CCCACCCA,0.117
23,TAATGTCA,-0.0397
24,GAAGATAC,0.0322
25,CTATTTGA,0.129

row,Sequence,PBM E-score
1,GGAGTCAA,0.0417
2,AGATTGTC,-0.145
3,GTTAACGA,-0.0966
4,ACTGGACG,0.303
5,CAGCTGGA,0.0258
6,GGCGAATA,0.139
7,GCACTAAA,0.0118
8,ACCAGAGA,-0.102
9,CTTCTTGA,0.257
10,CTTTACAA,-0.0314
11,AGATCCCA,0.265
12,AGACGCTC,0.185
13,CTATCACC,-0.0751
14,CTTGTCTA,-0.0729
15,AACGAACG,-0.0657
16,AAGGCTCC,0.0884
17,CCGACCCC,-0.121
18,TATGTCGA,0.0853
19,CTCGTTAC,-0.102
20,AAATACGT,0.128
21,CTCTGCGA,-0.0534
22,AGACCTAG,0.0215
23,AGTCGGGG,0.0245
24,CAATCCTA,0.03
25,CGTCCGAG,-0.124

row,Sequence,PBM E-score
1,AACTAGTG,0.156
2,CACTGCTA,-0.145
3,ACGCGGGG,0.0597
4,ACAGTAAC,0.0416
5,CCCCTAGC,0.0605
6,GGCACGCA,-0.00715
7,AGGACATG,-0.0461
8,TCGAGCAA,-0.0234
9,TCGGAGAA,0.0287
10,ACTGGGGC,0.0922
11,CGACGAGC,-0.246
12,CCTTAAGC,-0.0255
13,CGTTAGTA,0.0931
14,GATAACCA,0.0866
15,AACAATCG,-0.182
16,CGGTCTAC,-0.204
17,GGCTGACC,-0.139
18,ATAGGCGA,0.0948
19,TAAATAAA,0.08
20,CAGCGTTA,-0.155
21,GCAGGCGA,-0.0907
22,GACAGGTC,-0.204
23,CGGACTTA,-0.122
24,ATAGTGCG,-0.138
25,AACACGGA,-0.104

row,Sequence,PBM E-score
1,CATCTACC,0.0356
2,AGGTATGC,-0.0126
3,AAGGGCGC,0.224
4,CCGGCCAC,-0.136
5,ACTAAGTA,0.0323
6,AACTCTGT,-0.178
7,CGCCTACC,-0.0167
8,GACTACCC,-0.146
9,AATAGGCG,0.168
10,AAAATCCA,-0.012
11,AACGGAGG,-0.167
12,AGACGTGC,0.195
13,GCGTAAGA,-0.0655
14,AGCCTGTA,0.0606
15,CGACCGGC,-0.113
16,CGGCAAAG,-0.0192
17,GGGTACAA,0.0739
18,ACGTTTCA,-0.119
19,AGCATTGC,-0.114
20,GCGAACTA,0.109
21,ACCATCAC,-0.2
22,GCGTTCCC,0.101

# Source: the supplement of paper PMC3334620
